{
  "source": "PubChem BioAssay AID2546",
  "about": "(National Center for Advancing Translational Sciences (NCATS), 2010)",
  "note": "Out of some 310,000 compounds screened, about 11,000 (3.5%) were called active. This list was built around the results that the source calls inconclusive (neither active nor inactive); the mix of calls is not that of the screen. Calls come from the whole dose curve; as a rule, active = well fitted inhibition curve with a large enough effect; inconclusive = small, poorly fitted or top-dose-only effect, or effect the other way; inactive = flat fitted curve, though single readings scatter. Potencies of inconclusive entries are left out as doubtful fits. Potency is the fitted concentration of half-maximal effect; tags give direction and shape of the fitted curve.",
  "data": [
    {"test": "VP16 counterscreen qHTS for inhibitors of ROR gamma transcriptional activity;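 note: Gal4-VP16 expression switched on by copper sulfate through the metallothionein promoter; nearly all actives have a fitted effect of over 50% in size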", "details": "Drosophila S2 Gal4-VP16 UAS-luciferase, luminescence, 20 h; series mostly up to 53.6 µM", "values": [
      {"smiles": "COC(=O)C(C)n1cnc2c(nnn2Cc2ccc(Cl)cc2)c1=O", "note": "(configuration not stated)", "Potency": "inconclusive [inhibitor, single point]"},
      {"smiles": "COc1ccc(N=C2C(=O)N3CCCc4cccc2c43)cc1", "Potency": "inactive"},
      {"smiles": "Cc1nn(-c2ccccc2)c2sc(C(=O)N3CCc4ccccc4C3)cc12", "Potency": "inconclusive [inhibitor, single point]"},
      {"smiles": "Cc1ccc(-n2c(C)cc(C(=O)COC(=O)c3c(C)noc3C)c2C)cc1", "Potency": "inconclusive [inhibitor, single point]"},
      {"smiles": "C/C(CC(=O)Nc1ccc2c(c1)OCCO2)=N\\NC(=O)c1ccccn1", "Potency": "inconclusive [activator, single point]"},
      {"smiles": "O=C1CSC(=S)N1/N=C/c1cc(Br)ccc1O", "Potency": "inconclusive [inhibitor, single point]"},
      {"smiles": "COc1cc2c(cc1NC(=O)COC(=O)[C@@H](NC(=O)c1ccccc1F)C(C)C)oc1ccccc12", "Potency": "active: 11.2 µM"},
      {"smiles": "CC1CCCN(Cc2ccc(OCc3ccccc3)cc2)C1", "note": "(configuration not stated)", "Potency": "inactive"},
      {"smiles": "COC(c1ccccc1)c1nnc(CCC(=O)N(C)CCCC2CCCC2)o1", "note": "(configuration not stated)", "Potency": "inconclusive [activator, partial curve]"},
      {"smiles": "NC(=O)CSC1=N/C(=C\\c2ccco2)C(=O)N1c1ccc(OC(F)F)cc1", "Potency": "inconclusive [activator, single point]"},
      {"smiles": "COc1ccc(C(=O)Nc2cc(OC)cc3cccnc23)cc1", "Potency": "inactive"},
      {"smiles": "CC(C)c1ccc(C(=O)OCC(=O)NC2CCCC2)cc1", "Potency": "inactive"},
      {"smiles": "CCc1ccc(Oc2coc3cc(OCC(=O)Nc4cc(C)ccc4C)ccc3c2=O)cc1", "Potency": "active: 7.94 µM"},
      {"smiles": "COc1ccc(-n2nnnc2SCC(=O)c2ccc3c(c2)OCCO3)c(OC)c1", "Potency": "inconclusive [inhibitor, single point]"},
      {"smiles": "Cc1cc(C(=O)OCC(=O)Nc2c(F)cccc2F)c(C)n1-c1ccccc1", "Potency": "inconclusive [inhibitor, single point]"},
      {"smiles": "COc1ccc2[nH]c(C(=O)O)c(NS(=O)(=O)c3ccc(C)cc3C)c2c1", "Potency": "inactive"},
      {"smiles": "CNc1nc(SC(C)C(=O)Nc2ccc(Cl)c(Cl)c2)nc(N2CCOCC2)n1", "note": "(configuration not stated)", "Potency": "inactive"},
      {"smiles": "CCOc1ccc(C(=O)Nc2nnc(NC(=S)Nc3ccccc3)s2)cc1", "Potency": "active: 1.58 µM"},
      {"smiles": "Cc1nc(Nc2ccccc2)c2nc(-c3ccccc3)n(CCN3CCOCC3)c2n1", "Potency": "inactive"},
      {"smiles": "CC(=O)Nc1cccc(-c2cnc3ccccc3n2)c1", "Potency": "inconclusive [inhibitor, single point]"},
      {"smiles": "C[C@H](NC(=O)c1nc[nH]c1C(=O)NCC(=O)OCc1ccccc1)c1ccccc1", "Potency": "inconclusive [inhibitor, single point]"},
      {"smiles": "COc1cccc(/C=C2/SC(=S)N(CC(=O)NC3C=CS(=O)(=O)C3)C2=O)c1", "note": "(configuration not stated)", "Potency": "inconclusive [inhibitor, single point]"},
      {"smiles": "CCn1cc(C2Nc3ccccc3C(=O)N2O)c(C)n1", "note": "(configuration not stated)", "Potency": "inconclusive [activator, single point]"},
      {"smiles": "Cc1ccc(-c2noc(CCC(=O)N(C)c3ccccc3C)n2)cc1", "Potency": "inconclusive [inhibitor, single point]"},
      {"smiles": "Cc1nc(Cl)c(C(=O)NC(=O)NCc2ccccc2)c(C)c1Cl", "Potency": "inactive"},
      {"smiles": "CN(C(=O)c1ccc(COc2ccccc2Br)o1)c1ccccc1", "Potency": "inconclusive [inhibitor, single point]"},
      {"smiles": "Cc1ccc(NC(=S)N(C)C(c2ccccc2)c2ccccc2)cc1C", "Potency": "active: 10 µM"},
      {"smiles": "CC(=O)Nc1ccc(S(=O)(=O)Nc2cc(C)cn(Cc3ccc(C)cc3)c2=O)cc1", "Potency": "inconclusive [inhibitor, partial curve]"},
      {"smiles": "Cc1cc(N2CCCC2)n2nc(C)c(-c3ccccc3)c2n1", "Potency": "inactive"},
      {"smiles": "O=C1c2ccccc2NC(c2ccc(-c3ccc(Br)cc3)o2)N1O", "note": "(configuration not stated)", "Potency": "inconclusive [inhibitor, single point]"},
      {"smiles": "Cc1cccc(NCC(=O)N/N=C\\c2ccc[nH]2)c1", "Potency": "inconclusive [inhibitor, single point]"},
      {"smiles": "CCCC[C@@H]1CNC(=S)N1CCc1cccc(F)c1", "Potency": "active: 3.98 µM"},
      {"smiles": "O/C=c1\\ccc2cccc3nc(C(F)(F)F)nc1c23", "Potency": "inactive"},
      {"smiles": "COc1ccc(OCCSc2nnc(Cc3cccc4ccccc34)n2N)cc1", "Potency": "inconclusive [inhibitor, single point]"},
      {"smiles": "COc1ccc(N=Nc2nc(-c3ccccc3)c(-c3ccccc3)[nH]2)cc1", "Potency": "active: 2.82 µM"},
      {"smiles": "CCOc1ccc(-c2nnc(-c3ccco3)o2)cc1OCC", "Potency": "inconclusive [inhibitor, full curve]"},
      {"smiles": "COc1cccc([C@@H]2Oc3ccc(OC)cc3C(=O)[C@H]2OC(=O)N[C@H]2CCCc3ccccc32)c1", "Potency": "inactive"},
      {"smiles": "O=C(Nc1nnc(-c2ccco2)o1)C1CC1", "Potency": "inconclusive [inhibitor, single point]"},
      {"smiles": "C/C(=N\\NC(=S)Nc1ccccc1C)c1cc2ccccc2o1", "Potency": "active: 7.08 µM"},
      {"smiles": "CCOP(=O)(OCC)/C(C#N)=C/c1ccc([N+](=O)[O-])cc1", "Potency": "inconclusive [inhibitor, single point]"},
      {"smiles": "CCCSc1sc(C(=O)OC)c(-c2cccs2)c1C#N", "Potency": "inactive"},
      {"smiles": "COc1ccc(C(=O)N/N=C(\\CCC(=O)O)c2ccc(C(C)(C)C)cc2)cc1OC", "Potency": "inconclusive [activator, single point]"},
      {"smiles": "C=CCn1c(-c2cccc(OCC)c2)n[nH]c1=S", "Potency": "active: 17.8 µM"},
      {"smiles": "C#CCN(C(=O)c1cc(COc2ccc(C)c(C)c2)on1)C1CCCCC1", "Potency": "inconclusive [inhibitor, single point]"},
      {"smiles": "COc1ccccc1NS(=O)(=O)c1cc([N+](=O)[O-])ccc1N/N=C/c1c[nH]c2ccccc12", "Potency": "inconclusive [inhibitor, single point]"},
      {"smiles": "O=C(NC1CCCC1)c1cc(-c2ccccc2)on1", "Potency": "inconclusive [inhibitor, full curve, poor fit]"},
      {"smiles": "Cc1ccccc1S(=O)(=O)Cc1ccc(C(=O)NCCCN2CCN(C)CC2)o1", "Potency": "inconclusive [inhibitor, full curve, poor fit]"}
    ]}
  ]
}
